# Laboratory results from PubChem BioAssay (Tox21).
# Several values for one entry are separate records, joined by “and”; a condition that tells them apart may be missing. Equal values may be shown once. The inconclusive results got no clear call from the source; some entries with a clear call stand among them for comparison. Potencies beside an inconclusive call are fits to weak or partial responses and may not hold up. Activity calls are given as the source filed them. Calls follow the shape of the dose curve; as a rule, active = well fitted cell-killing curve with a large enough effect in the repeat runs; inconclusive = weak or mixed curves, or effect the other way; inactive = flat fitted curve, though single readings scatter.
# Tests used:
# [1] = cAMP Responsive Elements (CRE) small molecule antagonists, cell-based qHTS assay: qHTS cell viability counter screen (AID 2060913); details: CRE-bla HEK293T viability, CellTiter-Glo luminescence, 5 h; series mostly up to 92.4 µM; also: nearly all actives have a fitted effect of over 40% in size
# Method in brief: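 Cytotoxicity read in the same wells as the CRE-bla HEK293T antagonist assay: after 3 h compound with 0.25 uM NKH477 final and 2 h beta-lactamase substrate, CellTiter-Glo luminescence measured.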
# [2] = cAMP Responsive Elements (CRE) small molecule agonists, cell-based qHTS assay: qHTS cell viability counter screen (AID 2060914); details: CRE-bla HEK293T viability, CellTiter-Glo luminescence, 5 h; series mostly up to 92.4 µM;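 also: viability read after 3 h of compound exposure; nearly all actives have a fitted effect of over 50% in size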
# Method in brief: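 HEK 293T CRE-bla; DMEM + 10% dialyzed FBS, 25 mM HEPES; 18 h pre-incubation; compound 3 h, 37 °C/5% CO2; CellTiter-Glo added after reporter read; luminescence after 30 min RT.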
# Potency is read from the fitted curve at half-maximal effect; tags tell the direction and shape of the fitted curve.
Compound,Potency [1],Potency [2]
O.O.O.O.O.O.O.O=S(=O)([O-])[O-].[Co+2],inactive,"inconclusive: 48.9 µM [cytotoxic, partial curve, poor fit]"
O=C1C2(Cl)C3(Cl)C4(Cl)C(Cl)(Cl)C5(Cl)C3(Cl)C1(Cl)C5(Cl)C24Cl (stereo not given),"active: 60.1 µM and inconclusive: 65.7 µM [cytotoxic, single point]","inconclusive: 13.5 µM [cytotoxic, full curve, poor fit] and inconclusive: 65.7 µM [cytotoxic, single point]"
c1csc(-c2ccc(-c3cccs3)s2)c1,"inconclusive: 77 µM [cytotoxic, partial curve, poor fit]","inconclusive: 68.6 µM [cytotoxic, single point]"
CCCCCCCCCC[N+](C)(C)CCCCCCCCCC,active: 30.6 µM,"inconclusive: 9.69 µM [cytotoxic, partial curve]"
CC(=O)[O][Pb]([c]1ccccc1)([c]1ccccc1)[c]1ccccc1,active: 18 µM,active: 24.3 µM
ClC1=C(Cl)[C@]2(Cl)[C@@H]3[C@@H](Cl)[C@H]4O[C@H]4[C@@H]3C1(Cl)C2(Cl)Cl,"inconclusive: 68.6 µM [cytotoxic, single point]","inconclusive: 68.6 µM [cytotoxic, single point]"
CC(=O)[O-].CC(=O)[O-].O.O.[Cd+2],active: 53.7 µM,inactive
CCC(C)(C)c1ccc(O)c(C(C)(C)CC)c1,"inconclusive: 48 µM [cytotoxic, partial curve]",active: 30.3 µM and active: 24.3 µM
O=[N+]([O-])c1ccc(O)c([N+](=O)[O-])c1,"inconclusive: 21.8 µM [cytotoxic, partial curve] and active: 54.5 µM","inconclusive: 43.5 µM [cytotoxic, partial curve, poor fit] and inconclusive: 43.3 µM [cytotoxic, partial curve, poor fit]"
C=CC(=O)OCC(CC)(COC(=O)C=C)COC(=O)C=C,"inconclusive: 79 µM [cytotoxic, single point] and inconclusive: 63.9 µM [cytotoxic, single point]","inconclusive: 4.99 µM [rising, full curve]"
Cc1ccc([N+](=O)[O-])[c]2c1[O][Hg]2,active: 11.9 µM,active: 18.8 µM
CO/N=C(/C(=O)OC)c1ccccc1COc1ccccc1C,inconclusive: 17.2 µM [cytotoxic],"inconclusive: 61.1 µM [cytotoxic, single point]"
COc1ccc(C(c2ccc(OC)cc2)C(Cl)(Cl)Cl)cc1,"inconclusive: 68.2 µM [cytotoxic, partial curve, poor fit]","inconclusive: 21.6 µM [cytotoxic, full curve, poor fit]"
[Cl][Sn]([c]1ccccc1)([c]1ccccc1)[c]1ccccc1,active: 2.59 µM,"inconclusive: 1.46 µM [cytotoxic, full curve, poor fit]"
CCCN(CCC)c1c([N+](=O)[O-])cc(S(N)(=O)=O)cc1[N+](=O)[O-],active: 43 µM,"inconclusive: 2.6 µM [cytotoxic, full curve, poor fit]"
CCC[CH2][Sn]([CH2]CCC)([CH2]CCC)[O][Sn]([CH2]CCC)([CH2]CCC)[CH2]CCC,active: 1.5 µM,active: 1.34 µM
c1ccc2c(c1)Nc1ccccc1S2,"inconclusive: 11.4 µM [cytotoxic, full curve, poor fit]","inconclusive: 48.6 µM [cytotoxic, partial curve, poor fit]"
COP(=S)(OC)Oc1ccc([N+](=O)[O-])cc1Cl,inactive,"inconclusive: 0.433 µM [rising, single point]"
O=C(NCc1cccnc1)Nc1ccc([N+](=O)[O-])cc1,inactive,inactive
CC(=O)[O][Hg][c]1ccccc1,active: 12.1 µM and active: 12.2 µM and active: 16.8 µM,"active: 10.8 µM and active: 13.7 µM and inconclusive: 33.5 µM [cytotoxic, single point]"
